Inconclusive results, whose numbers are uncertain, are shown with a selection of clear calls. The source made the active and inactive calls.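 The calls were made as follows, unless noted: active = thallium entry rate above the same plate's blocked-transporter control wells by more than 3 SD; inconclusive = the two repeat wells disagree; inactive = the rest.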
Columns and labels:
[1] = FluoZin2 fluorescence counter-screen of MLSMR hits on KCC2-expressing cells (AID 1714); settings: HEK293-KCC2 + bumetanide/ouabain, at 10 µM, active compounds read high;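 also: raw slope of fluorescence over initial fluorescence between 10 and 20 s after thallium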
Method in brief: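 Test system – KCC2-expressing HEK cells · Medium – HBSS-HEPES with ouabain and bumetanide · Reagent – thallium stimulus · Dosing – 10 µM single dose · Times – 48 min dye loading · Technique – kinetic FluoZin2 fluorescence, ex 480/em 540 nm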

[2] = compound effects on native HEK Tl+ uptake – HEK cells, counterscreen 1, counter-screen for KCC2 modulator project, confirmation (AID 1716;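 active = thallium flux rate significantly above the same plate's solvent-only control wells, beyond their mean plus 3 SD; inconclusive = the two replicate wells gave conflicting results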); settings: HEK293 parental cells, thallium flux FluoZin2, ouabain; at 10 µM; baseline-ratio fluorescence slope, 10–20 s after thallium
[3] = target: Solute carrier family 12 member 5 (Homo sapiens) (UniProt Q9H2X9); assay: retest of KCC2 transport modulation, ouabain-free – cell-based, HEK293 KCC2, thallium flux, FluoZin2, secondary assay 2, confirmation (AID 1715;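 active = thallium flux slope more than 3 SD above or below the plate's solvent-only control mean, mostly below; inconclusive = the two repeat wells disagreed; inactive = no significant shift from solvent-only controls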;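 also: raw slope with 0.1% DMSO as baseline and bumetanide as block control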); settings: HEK293-KCC2, thallium flux FluoZin2 fluorescence; at 10 µM; actives lie on both sides; F/F0 rise rate, 10–20 s post-thallium
Chain of UniProt Q9H2X9 (Q9H2X9 whole entry, looked up): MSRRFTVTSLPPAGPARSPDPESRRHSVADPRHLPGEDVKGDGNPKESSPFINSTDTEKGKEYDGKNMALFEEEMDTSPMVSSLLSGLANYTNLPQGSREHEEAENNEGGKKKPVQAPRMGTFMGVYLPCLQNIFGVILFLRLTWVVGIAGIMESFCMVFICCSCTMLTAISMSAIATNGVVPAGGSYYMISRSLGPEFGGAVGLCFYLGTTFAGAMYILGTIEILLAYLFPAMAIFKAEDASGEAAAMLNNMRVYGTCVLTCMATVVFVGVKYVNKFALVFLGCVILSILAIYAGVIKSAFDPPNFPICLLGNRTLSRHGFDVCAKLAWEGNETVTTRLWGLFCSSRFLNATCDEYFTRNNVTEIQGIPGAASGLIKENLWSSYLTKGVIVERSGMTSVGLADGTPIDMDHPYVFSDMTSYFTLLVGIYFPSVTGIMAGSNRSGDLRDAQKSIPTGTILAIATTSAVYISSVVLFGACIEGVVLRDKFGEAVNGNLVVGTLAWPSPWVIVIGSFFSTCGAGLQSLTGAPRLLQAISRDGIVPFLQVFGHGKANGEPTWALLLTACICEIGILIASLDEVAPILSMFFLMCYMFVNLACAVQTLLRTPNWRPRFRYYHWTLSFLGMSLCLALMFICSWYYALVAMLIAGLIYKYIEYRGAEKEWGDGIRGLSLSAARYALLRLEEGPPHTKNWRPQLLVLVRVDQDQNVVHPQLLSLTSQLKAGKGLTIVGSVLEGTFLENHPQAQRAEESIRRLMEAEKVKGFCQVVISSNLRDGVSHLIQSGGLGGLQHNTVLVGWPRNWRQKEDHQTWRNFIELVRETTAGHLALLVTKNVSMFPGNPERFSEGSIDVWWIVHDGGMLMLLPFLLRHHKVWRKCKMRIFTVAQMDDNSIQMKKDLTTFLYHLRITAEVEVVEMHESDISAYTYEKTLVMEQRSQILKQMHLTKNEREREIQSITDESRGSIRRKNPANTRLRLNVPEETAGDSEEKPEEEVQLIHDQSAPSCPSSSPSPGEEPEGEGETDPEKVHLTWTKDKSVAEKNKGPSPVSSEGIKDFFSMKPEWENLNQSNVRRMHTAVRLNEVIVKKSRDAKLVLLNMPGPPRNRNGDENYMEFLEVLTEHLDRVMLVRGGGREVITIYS

[4] = target: Solute carrier family 12 member 5 (Homo sapiens) (UniProt Q9H2X9); assay: modulation of KCC2 thallium flux in HEK cells – cell-based, ouabain, retest, confirmation (AID 1717;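 active = thallium flux slope beyond 3 SD from same-plate DMSO control mean in most replicates, usually higher, sometimes lower; inconclusive = repeat tests gave conflicting results; inactive = no significant difference from controls in most replicates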;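 also: slope of initial-normalized fluorescence between seconds 10 and 20 after thallium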); settings: HEK293-KCC2, thallium flux FluoZin2 fluorescence, at 10 µM, bidirectional: low = inhibitor, high = activator
[5] = native HEK Tl+ uptake effects, second counter-screen – HEK cells, counterscreen 2, counter-screen for KCC2 modulator project, confirmation (AID 1718;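 active = thallium flux slope above the same plate's solvent-control mean plus 3 SD in both duplicate wells; inconclusive = duplicate wells that disagreed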;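 also: run without ouabain in cells lacking the KCC2 cotransporter; slope of fluorescence scaled to its starting value between 10 and 20 s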); settings: HEK293 parental, thallium flux FluoZin-2 fluorescence slope; at 10 µM
Method in brief: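 Read-out: thallium influx rate; assay system: parental HEK cells; replication: slope calculated separately for each replicate well; signal: FluoZin2-AM fluorescence (0.5 µM), ex 480 nm, em 540 nm, kinetic 1 Hz; benchmarks: bumetanide 2 mM; schedule: overnight cell culture at 37 °C, 48 min dye loading, compound before thallium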

Compound | normalized thallium flux [1] | thallium flux rate (normalised fluorescence) [2] | normalized thallium flux [3] | raw Tl+ flux slope (below DMSO = inhibition, above = activation) [4] | thallium flux slope [5]
Cc1nonc1C1CCCN1C(=O)c1cc(COc2ccc(F)cc2Cl)on1 (stereo not given) | inactive: 0.00398 | inconclusive: 0.00642 | – | – | –
O=C(OC1CCc2ccccc2C1=O)c1ccccc1O (stereo not given) | inconclusive: 0.00858 | inactive: 0.00751 | – | – | –
Cc1ccc(Cn2nnc3c(=O)[nH]c(C4CCN(S(=O)(=O)c5ccc(C)cc5)CC4)nc32)cc1 | inactive: 0.00486 | inactive: 0.00805 | – | – | –
COc1ccccc1NC(=O)c1ccc(COc2ccccc2OC)o1 | inconclusive: 0.00528 | – | inconclusive: 0.0253 | inconclusive: 0.0158 | inactive: 0.0105
Cc1ccc(C(=O)CSc2nnc(-c3ccco3)n2Cc2ccccc2)cc1 | inactive: 0.00363 | inconclusive: 0.00245 | – | – | –
CC(/C=C/c1ccccc1F)=N\NC(=O)c1ccc(Cl)cc1 | active: 0.0201 | – | inconclusive: 0.0373 | – | active: 0.0195
Cc1c(-c2ccccc2)oc2c(C(=O)OCC(=O)Nc3ccc(C(N)=O)cc3)cccc2c1=O | inactive: 0.00536 | inconclusive: 0.00636 | – | – | –
O=C(Cn1cnc2c(nnn2Cc2ccccc2)c1=O)c1ccc(Cl)cc1 | inconclusive: 0.00712 | – | inconclusive: 0.0291 | – | inactive: 0.0107
N#CC(C#N)=C(Nc1ccc(F)cc1)SCc1cccc(F)c1 | inconclusive: 0.00588 | inconclusive: 0.00577 | – | – | –
Cc1ccsc1C(=O)OCc1nc2ccccc2c(=O)[nH]1 | inactive: 0.00708 | – | inactive: 0.035 | inactive: 0.02 | inconclusive: 0.0115
CC(OC(=O)c1ccccc1NCc1ccco1)C(=O)Nc1ncc(Cl)cc1Cl (stereo not given) | inactive: 0.00578 | inactive: 0.00641 | – | inconclusive: 0.0646 | inconclusive: 0.00899
